Laboratory results as given in PubChem BioAssay (NCI).
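The compound was tested at five concentrations on cells cultured in 96-well plates, with a 48-hour exposure period. At the TGI there is no net growth.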

System: NCI-H322M lung
Assay: NCI-60 cell line screen, 48 h

SMILES | TGI [µM]
O=[As](O)(O)c1ccc(Cc2ccc([As](=O)(O)O)cc2)cc1 | 9.5
COCN1C(=O)[C@@H]2CCCN2C(=O)c2cc([N+](=O)[O-])ccc21 | > 100
